According to PMC4336329 (PLoS ONE, 2015):
The whole screen tested about 310,000 compounds, of which about 14,000 (4.5%) showed an effect of 50% or more. Effects have a minus sign here. This is one part of the list.

The compounds below were run against human ether-à-go-go-related gene (hERG) potassium channel (human, UniProt Q12809) (assay: primary screen, population patch clamp on CHO cells stably expressing hERG).
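Further: peak tail current of the secondary pulse compared with the same well before compound.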

Chain of human ether-à-go-go-related gene (hERG) potassium channel (Q12809 whole entry, looked up): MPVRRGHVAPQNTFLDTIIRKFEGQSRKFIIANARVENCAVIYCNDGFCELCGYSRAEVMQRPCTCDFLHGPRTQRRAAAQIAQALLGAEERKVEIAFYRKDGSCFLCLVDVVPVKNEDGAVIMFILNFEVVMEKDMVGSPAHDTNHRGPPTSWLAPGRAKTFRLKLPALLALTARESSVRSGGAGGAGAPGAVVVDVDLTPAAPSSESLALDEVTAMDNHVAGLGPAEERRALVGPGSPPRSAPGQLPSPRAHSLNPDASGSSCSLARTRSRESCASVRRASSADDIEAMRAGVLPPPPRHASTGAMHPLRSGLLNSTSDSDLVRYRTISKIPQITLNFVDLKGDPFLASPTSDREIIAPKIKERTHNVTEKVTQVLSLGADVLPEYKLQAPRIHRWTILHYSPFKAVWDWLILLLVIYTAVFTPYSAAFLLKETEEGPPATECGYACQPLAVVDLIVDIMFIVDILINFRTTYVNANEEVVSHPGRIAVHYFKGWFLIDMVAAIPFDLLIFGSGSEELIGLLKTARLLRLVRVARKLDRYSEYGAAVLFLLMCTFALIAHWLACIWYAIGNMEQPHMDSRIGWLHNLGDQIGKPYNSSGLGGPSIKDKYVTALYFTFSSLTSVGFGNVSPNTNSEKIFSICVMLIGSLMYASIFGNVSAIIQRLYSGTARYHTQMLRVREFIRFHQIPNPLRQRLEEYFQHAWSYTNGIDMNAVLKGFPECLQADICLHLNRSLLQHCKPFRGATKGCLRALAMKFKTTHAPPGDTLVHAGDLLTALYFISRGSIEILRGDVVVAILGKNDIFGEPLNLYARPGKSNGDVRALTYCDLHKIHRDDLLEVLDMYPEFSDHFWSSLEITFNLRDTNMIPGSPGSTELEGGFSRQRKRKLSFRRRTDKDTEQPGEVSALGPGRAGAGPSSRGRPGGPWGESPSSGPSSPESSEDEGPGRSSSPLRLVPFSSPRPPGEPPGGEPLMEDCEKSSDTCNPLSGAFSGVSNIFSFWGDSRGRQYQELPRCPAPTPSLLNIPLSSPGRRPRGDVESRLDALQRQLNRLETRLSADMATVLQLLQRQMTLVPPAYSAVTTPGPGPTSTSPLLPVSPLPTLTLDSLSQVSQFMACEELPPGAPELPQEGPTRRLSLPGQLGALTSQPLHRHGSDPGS

Structure (SMILES)	hERG current change (%, negative = inhibition) at 10uM [%]
CC(=O)N1c2ccc(S(=O)(=O)CCC(=O)O)cc2CC1C (stereo not shown)	18.1
Cc1cc(C)c(-c2c(O)c3ccccc3n(C)c2=O)c(C)c1	6.92
O=C(N/N=C\c1ccncc1)c1ccc(Cl)s1	-3.18
COc1cccc(CNC(=O)COC(=O)c2ccc(C(=O)c3ccccc3)cc2)c1	-7.13
CC(=O)NC1=NN(C(C)=O)C(C)(c2cccs2)S1 (stereo not shown)	10.3
Cc1cccc(CN2CCC(n3nccc3NC(=O)c3ccccc3C)CC2)n1	-19.9
CCc1ccc(N(C(=O)CNC(=O)c2ccco2)C(C(=O)NCC2CCCO2)c2ccccc2)cc1 (stereo not shown)	-20.8
Cc1cccc(C)c1NC(=O)CN(C)C(=O)CSCc1c(C)noc1C	0.966
COc1ccc(S(=O)(=O)NCC2CCCN(C(=O)c3sccc3C)C2)cc1 (stereo not shown)	-10.9
C[C@H]1CCC[C@]2(O[C@H](CCO)C[C@H](O)[C@H]2O)O1	5.88
Cc1ccc(C2NC(=S)NC3=C2C(=O)CCC3)cc1 (stereo not shown)	13.2
Cc1cc(C(=O)N/N=C/c2ccccn2)n[nH]1	19.6
COc1ccc(-c2nc(C#N)c(N3CCN(c4cccc(Cl)c4)CC3)o2)cc1OC	12.2
CC(C)CN1CCC(=O)N(CCN=[N+]=[N-])CC1	-12.5
CCC(=O)N1c2ccc(S(=O)(=O)N3CCN(c4ccccc4Cl)CC3)cc2CC1C (stereo not shown)	-4.75
CCOC(=O)N1CCN(C(=O)c2cc3n(n2)C(C(F)(F)F)CC(c2ccc4c(c2)OCO4)N3)CC1 (stereo not shown)	-6.05
CC(=O)c1cc2c(cc1NC(=O)CCn1cnnn1)OCO2	-14.4
COc1ccc(OCc2cc(C(=O)NC(C)Cc3ccccn3)no2)c(Cl)c1 (stereo not shown)	-22
O=C(O)CCN(CCC(=O)O)c1nnc(SCc2ccccc2)s1	13.5
COc1ccc(NC(=O)COC(=O)C2C3CC4OC(=O)C2C4C3)cc1 (stereo not shown)	12.4
CCN(CC(=O)Nc1ccc(NC(C)=O)cc1)C(=O)/C=C/c1ccc(S(=O)(=O)N2CCCCCC2)cc1	15.2
COc1ccccc1N1CCN(C(=O)CCc2nnc3ccc(N4CCOCC4)nn23)CC1	5.06

Structure (SMILES)	hERG current change (%, negative = inhibition) at 10uM [%]
O=C(NC1CCCCC1)C(c1cccnc1)N(CCc1ccccc1)C(=O)Cc1cccs1 (stereo not shown)	-13
COc1ccc(NCCC(O)c2ccc(Cl)cc2)cc1 (stereo not shown)	9.65
O=S1(=O)C=C(SCc2ccc(F)cc2)Nc2ccccc21	-26.9
Cn1c(O)c(N=Nc2ccccc2)c2ccccc21	12.8
O=C(NCc1ccccc1)C1=C[C@H](C2CCCCC2)C[C@H](OCCCCO)O1	-3.07
CC(=O)N1C(=O)/C(=C2\SC(=S)N(c3c(C)n(C)n(-c4ccccc4)c3=O)C2=O)c2ccccc21	1.55
COc1cc(NC(=O)c2ccccc2F)c(OC)cc1NC(=O)CN1CCCCC1.Cl	-5.55
CN(Cc1ccccc1)C(=O)C1CCCN(Cc2ccc(Cl)cc2)C1.O=C(O)C(=O)O (stereo not shown)	-71
COc1cc(/C=C/C(=O)O)ccc1OS(=O)(=O)c1cc(C)ccc1C	9.78
CCOC(=O)N(CC)c1ccc(C(O)(C(=O)OCC)C(F)(F)F)cc1 (stereo not shown)	3.68
C=CCn1c(=O)c(C(=O)Nc2ccccc2C(=O)OCC)c(O)c2ccccc21	3.09
Cc1ccccc1OCC(O)Cn1c(Br)nc2c1c(=O)n(C)c(=O)n2C (stereo not shown)	10.2
Nc1c(S(=O)(=O)c2ccccc2)c2nc3ccccc3nc2n1/N=C/c1ccco1	8.28
COC(=O)c1ccc(NC(=O)COc2ccc3c(c2)OCO3)cc1	9.95
Cc1cc(=O)oc2cc(OCC(=O)N/N=C/c3ccccc3O)ccc12	23.9
CC(=O)c1ccc(N2CCN(C(=O)c3ccc(-c4ccccc4)cc3)CC2)cc1	13.7
COc1ccc(/C=C(\CC(=O)O)c2nc3ccccc3s2)cc1O	22.8
COc1ccc(NC(=O)c2nnn(CC(=O)Nc3ccc4c(c3)OCO4)c2N)c(OC)c1	15.3
CCOC(=O)c1cccc(NC(=O)CSc2nnc(-c3ccoc3C)n2CC)c1	-44.2
COc1cc(/C=C/C(=O)O)cc(S(=O)(=O)Nc2ccc3c(c2)OCO3)c1OC	1.63
COc1ccc(N(CCN2C(=O)c3ccccc3C2=O)C(=O)c2cccc([N+](=O)[O-])c2)cc1	-25.1
